Test results taken from PubChem BioAssay AID504832 (National Center for Advancing Translational Sciences (NCATS), 2011).
Among all 310,000 compounds or so, about 18,000 (5.8%) were called active. Inconclusive results, whose numbers are uncertain, are shown with a selection of clear calls. The call rests on the fitted dose curve; in most records, active means well fitted inhibition curve with a large enough effect; inconclusive means small, poorly fitted or top-dose-only effect, or another doubt; inactive means no such curve, though single readings can be large or run the other way. No potency is given beside an inconclusive call; the fits are too rough.

experiment: Primary qHTS for delayed death inhibitors of the malarial parasite plastid, 48 hour incubation; settings: P. falciparum luciferase growth in erythrocytes; series mostly up to 28.7 µM; activity change, negative = inhibition: at the top concentration
Procedure, shortened: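 Cell-based growth assay: transgenic P. falciparum expressing firefly luciferase, cultured in red cells within RPMI 1640 containing 0.5% w/v Albumax, 24 mM bicarbonate and gentamycin. A drop in luciferase activity indicates inhibition.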
On the % scale 0 is the no-effect control and ±100 the full control effect; potency means the concentration at half of the fitted maximal effect; tags describe the fitted curve by direction and shape.

Row | SMILES | Potency | activity change, negative = inhibition
1 | CC(=O)c1ccc(NC(=O)CN2CCC(C(=O)c3ccc(F)cc3)CC2)cc1 | inconclusive [inhibitor, single point] | 
2 | Cc1nc(-c2ccccn2)nc(SCC(=O)c2ccccc2)c1Cl | active: 14.7 µM | 
3 | CC(C)c1ccc(N(C(=O)c2csnn2)C(C(=O)NC(C)(C)C)c2cccnc2)cc1 (stereo unspecified) | inconclusive [inhibitor, single point] | 
4 | CCc1c(C)sc(NC(=O)/C=C/c2ccc3c(c2)OCO3)c1C(=O)OC | inconclusive [inhibitor, partial curve, poor fit] | 
5 | O=C(NCc1ccc(F)cc1)c1cccc(S(=O)(=O)N2CCOCC2)c1 | inconclusive [inhibitor, single point] | 
6 | CCN(CC(=O)NCc1cccs1)C(=O)CCCOc1ccc(C(C)(C)C)cc1 | inconclusive [inhibitor, single point] | 
7 | CN(C)C(CNC(=O)Cc1cccc(C(F)(F)F)c1)c1ccco1 (stereo unspecified) |  | inactive: -28.5%
8 | O=C1CN(C(=O)c2ccc(Cl)nc2)c2ccccc2N1 | inconclusive [inhibitor, partial curve, poor fit] | 
9 | CC(=O)c1ccc(N2CCN(C(=O)C(=O)c3cn(CC(=O)N4CCCCCC4)c4ccccc34)CC2)cc1 | inconclusive [inhibitor, single point] | 
10 | COc1ccc(-c2csc(NC(=S)NC(=O)c3ccco3)n2)cc1Br |  | inactive: -20.3%
11 | CCN(C(=O)COC(=O)c1ccc(Cl)c(N)c1)C1CCS(=O)(=O)C1 (stereo unspecified) |  | inactive: 33.6%
12 | C=CCn1c(SCC(=O)N2CCCCCC2)nc2ccccc2c1=O | inconclusive [inhibitor, partial curve, poor fit] | 
13 | COC(=O)c1ccccc1NC(=O)CN(c1ccc(OC)cc1)S(C)(=O)=O |  | inactive: -2.19%
14 | COc1cc(CCC(=O)OCC(=O)N2CCc3ccccc32)cc(OC)c1OC |  | inactive: -12%
15 | CC(=O)Nc1ccc(Oc2ccc([N+](=O)[O-])cc2Cl)cc1 |  | inactive: 8.73%
16 | O=C1CCc2cc(S(=O)(=O)NCc3ccccc3Cl)ccc2N1 | inconclusive [inhibitor, single point] | 
17 | Cc1ccc(O)c(C(=O)CC(=O)c2cccc(F)c2)c1 | inconclusive [inhibitor, single point] | 
18 | O=C(CNC(=O)c1ccccc1F)N/N=C\C=C\c1ccccc1 |  | inactive: 16.8%
19 | CCOc1ccc(OCCC(=O)N(CCCOC)c2c(N)n(Cc3ccccc3)c(=O)[nH]c2=O)cc1 | inconclusive [inhibitor, single point] | 
20 | CC(C)(C)NC(=O)COC(=O)c1ccc(S(=O)(=O)N2CCCCCC2)cc1 |  | inactive: 2.17%
21 | Cc1ccc(-c2nn3c(C)nnc3s2)cc1NC(=O)CSc1ccc(Cl)cc1 |  | inactive: -12.6%
22 | O=C(NCc1ccccn1)c1nc(-c2ccc(C(F)(F)F)cc2)no1 |  | inactive: 7.85%
23 | CN(C)CCCN(C(=O)c1ccc2c(c1)CCCC2)c1nc2cc3c(cc2s1)OCO3 | active: 11.7 µM | 
24 | O=C(CSc1n[nH]c(-c2ccncc2)n1)NCCc1ccccc1 | inconclusive [inhibitor, single point] | 

Row | SMILES | Potency | activity change, negative = inhibition
25 | COc1ccc(CC(=O)Oc2cc(C)[nH]c(=O)c2[N+](=O)[O-])cc1 |  | inactive: 38.9%
26 | O=S(=O)(c1cccc(F)c1)N1CCCN(c2ccc(C(F)(F)F)cn2)CC1 | inconclusive [inhibitor, partial curve, poor fit] | 
27 | COc1cc2c(cc1OC)CN(C(=O)COc1ccccc1C#N)CC2 | inconclusive [inhibitor, single point] | 
28 | COc1ccc2cc(CN(CCc3ccccc3)Cc3nnnn3CC3CCCO3)c(=O)[nH]c2c1 (stereo unspecified) | active: 9.28 µM | 
29 | CC1=C(C(=O)Nc2ccccn2)C(c2ccc(Cl)cc2Cl)NC(=S)N1 (stereo unspecified) | inconclusive [inhibitor, partial curve] | 
30 | O=C(Nc1nc(-c2ccccn2)cs1)c1cccc(-n2cnnn2)c1 | active: 1.17 µM | 
31 | CCOC(=O)c1ccc(OCCOc2cccc(C)c2)cc1 | inconclusive [inhibitor, partial curve, poor fit] | 
32 | CCOc1ccccc1CNC(=O)CCc1cn(C)c2ccccc12 |  | inactive: -18.2%
33 | Cc1ccc(O)c(NC(=O)c2noc3c2CCc2ccccc2-3)c1 | inconclusive [inhibitor, single point] | 
34 | O=C(NCC1(N2CCCCC2)CCCCC1)c1ccc(S(=O)(=O)N2CCCC2)cc1 | inconclusive [inhibitor, single point] | 
35 | O=C(CCN1C(=O)c2ccccc2S1(=O)=O)NCc1ccccc1Cl |  | inactive: 13%
36 | O=C(NC1CCCC1)c1ccc2c(c1)N(Cc1ccccc1)CCS2 | inconclusive [inhibitor, single point] | 
37 | Cc1onc(-c2c(Cl)cccc2Cl)c1C(=O)N1CCc2ccccc2C1 | active: 10.4 µM | 
38 | CCCCn1c(SC(C)C(=O)NCC2CCCO2)nc2cc(C(=O)OC)ccc2c1=O (stereo unspecified) | active: 5.86 µM | 
39 | O=C(Cn1cnc2ccccc21)NCc1ccccc1 |  | inactive: 17.3%
40 | CN(Cc1ccccc1)C(=O)c1ccccc1NC(=O)c1ccco1 |  | inactive: 2.29%
41 | Cc1sc2nc(SCC(=O)NCCOCCO)n(C)c(=O)c2c1C |  | inactive: -17.5%
42 | Cc1nn(CCCC(=O)NCc2ccco2)c(=O)c2nn(-c3ccccc3)c(C)c12 |  | inactive: -21.6%
43 | COc1ccc(-n2c(=S)[nH]c3ccccc3c2=S)cc1 | inconclusive [inhibitor, partial curve, poor fit] | 
44 | COc1ccc(-c2ccc(OC)c([C@H]3[C@H]4C=CC[C@@H](C)[C@@H]4C(=O)N3Cc3ccccc3)c2)cc1OC | inconclusive [inhibitor, partial curve, poor fit] | 
45 | Cc1ccc(C(=O)NCc2ccc(Cl)cc2)cc1S(=O)(=O)N1CCCCC1 | inconclusive [inhibitor, single point] | 
46 | Cc1ccc(-n2ncc3c2CC(C)(C)CC3NC(=O)c2ccc[n+]([O-])c2)cc1 (stereo unspecified) | inconclusive [inhibitor, partial curve, poor fit] | 
47 | CC(C)CC(NC(=O)c1ccc(Cl)cc1)C(=O)OCC(=O)c1ccc2c(c1)NC(=O)CO2 (stereo unspecified) |  | inactive: -2.26%
48 | CN1C[C@@H]2C(c3ccc(C(F)(F)F)cc3)C3(c4ccccc4)CC2(C3)[C@H]1c1ccccc1 (stereo partly specified) | inconclusive [inhibitor, partial curve, poor fit] | 

Row | SMILES | Potency | activity change, negative = inhibition
49 | Cc1ccc(-c2[nH]ncc2CNCCc2cnn(-c3ccccc3)c2)cc1C | active: 13.1 µM | 
50 | COc1ccc(C(=O)NC2CC2)cc1OC1CCN(Cc2cc(C)cc(C)c2)CC1 | inconclusive [inhibitor, single point] | 
51 | Cc1ccc(CNC(=O)/C=C/c2ccc(Br)o2)cc1 |  | inactive: 5.14%
52 | c1ccc(CCn2nnnc2CN2CCc3ccccc32)cc1 | inconclusive [inhibitor, partial curve, poor fit] | 
53 | CC(C)Sc1nc(N)c2c3c(sc2n1)CN(C)CC3 | active: 1.04 µM | 
54 | COc1ccc(CN(C(=O)c2cc3ccccc3oc2=O)C2CCCCC2)cc1OC | inconclusive [inhibitor, single point] | 
55 | Oc1c(Br)cc(/C=N/NC(=S)NCC2CCCO2)cc1Br (stereo unspecified) | inconclusive [inhibitor, partial curve, poor fit] | 
56 | O=C(CSc1nc2ccccc2c(=O)n1CC1CCCO1)Nc1ccccc1Cl (stereo unspecified) |  | inactive: -23.6%
57 | Cc1c(CCC(=O)N[C@@H](CC(C)C)C(=O)O)c(=O)oc2c(C)c3oc4c(c3cc12)CCCC4 | active: 2.33 µM | 
58 | Cc1cccc(N2CCN(C(=O)CS(=O)(=O)Cc3nc(-c4ccccc4F)oc3C)CC2C)c1 (stereo unspecified) | inconclusive [inhibitor, single point] | 
59 | O=C(NNS(=O)(=O)c1ccccc1)C1CC(c2cccnc2)=NO1 (stereo unspecified) | inconclusive [inhibitor, partial curve, poor fit] | 
60 | CC(Sc1ccccc1)C(=O)NCC(c1ccco1)N1CCCCC1 (stereo unspecified) | inconclusive [inhibitor, single point] | 
61 | Oc1cccc(/C=N/Nc2cc(N3CCCC3)nc(N3CCCC3)n2)c1 | active: 2.94 µM | 
62 | Cc1ccccc1CNC(=O)CCCC(=O)n1nc(C)c2ccccc21 |  | inactive: 14.4%
63 | COc1ccc(-c2cc3nc4c(c(=O)n3[nH]2)CCC4)cc1 | inconclusive [inhibitor, partial curve] | 
64 | Cc1ccc(S(=O)(=O)NC(CC(C)C)C(=O)NCCCn2nc(C)cc2C)cc1 (stereo unspecified) | inconclusive [inhibitor, single point] | 
65 | CC(C)OCCCNC(=S)Nc1ccc2nc3n(c(=O)c2c1)CCCCC3 |  | inactive: -12.2%
66 | c1ccc(C[C@H]2CNCCN2CCCCC2CCCCC2)cc1 | inconclusive [inhibitor, single point] | 
67 | COc1ccc(/C=C2\SC(=S)N(CCC(=O)NC3=NCCS3)C2=O)cc1OC |  | inactive: 28%
68 | COC(=O)C1CCN(C2=C(NS(=O)(=O)c3ccc(Cl)cc3)C(=O)c3ccccc3C2=O)CC1 | inconclusive [inhibitor, partial curve, poor fit] | 
69 | Cc1ncc([N+](=O)[O-])n1CC(=O)Nc1cc(Cl)ccc1Cl |  | inactive: 10.4% [at 0.00184 µM]
70 | CCn1cnnc1SCC(=O)NCC1COc2ccccc2O1 (stereo unspecified) | inconclusive [inhibitor, single point] | 
71 | CCOC(=O)C1CCN(C(=O)c2ccc(OCC(=O)Nc3cccc(C(F)(F)F)c3)cc2)CC1 | inconclusive [inhibitor, single point] | 
